The supplement of paper PMC11417369
This is one part of the list.

test system: PfHDP1 homeodomain (GST-tagged); assay: gcPBM binding intensity (ln(normalized median fluorescence intensity)); higher = stronger DNA binding
Outline: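 GST-fused DNA-binding domains of P. falciparum, expressed in E. coli, were applied at about 25 μg on average for 1 h to an Agilent 4 × 180k array of primer-extended double-stranded 36-bp intergenic genomic probes and negative controls. Binding intensity is the highest Masliner-normalised natural-log median intensity across replicate spots of either probe orientation, measured with Alexa488 anti-GST antibody and a 488 nm scan.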

First: TTTAATTTGTTATACACACACAAAAAAAGTTATAAA [CACACA_site7779]
Second: TCTTTCTTATATTTATATAATTATATTTATTTTATA [GTGCAC_negctrl_site300]
The “gcPBM binding intensity (ln)” value of the first is lower: 6.55 for the first, 6.67 for the second.

Compared with “ATATAATGTTATAGAAGTACATGAAATACTTATTTA [XGTACX_site8850]”, “CATATATACACATACACACACACACGGACACGCACA [CACACA_site6910]” is higher in “gcPBM binding intensity (ln)” value: 6.17 for the first, 7.64 for the second.

Going from “TATTGTATTTAATAAACACACAATATTAAAAATATA [CACACA_site4725]” to “ATACACATATATGTGTGTACTCACCTTTTAATATGA [XGTACX_site4349]”, the “gcPBM binding intensity (ln)” value rises from 6.22 to 6.54.

Going from “TGTTTAAAGGAAAAGGAGTAGTCTATTATATTATCT [CACACA_negctrl_site858]” to “GTATCTCATTATTCGTGTACTAAACACATAAAAATA [XGTACX_site2262]”, the “gcPBM binding intensity (ln)” value rises from 6.08 to 6.61.

First: ATCTATATCTATAATACACACTAAAGTAACAGAATA [CACACA_site7370]
Second: GATTTACAACACGAACGTACAGAACAAAAAGGAAAA [XGTACX_site6501]
The “gcPBM binding intensity (ln)” value of the first is higher: 6.82 for the first, 6.77 for the second.

First: AATGTAAAAGTAAACACACACATATATATATACATA [CACACA_site2484]
Second: TATAAAAATAAAAAAAGTACACATAAAAATATATAT [XGTACX_site5189]
The “gcPBM binding intensity (ln)” value of the first is higher: 6.78 for the first, 6.59 for the second.

First: TCATTCATATGTTACACACACACACGCACATAAAAA [CACACA_site7514]
Second: TATATAATATAATTGACATGCAACCATTTTCGTGAA [TGCATGCA_site458]
The “gcPBM binding intensity (ln)” value of the first is higher: 7.85 for the first, 7.14 for the second.

Compared with “AAGTTGGAAAGGTTATGTACTTATTTTTTAAAATAA [XGTACX_site204]”, “TATATATTCAAATGTGCATGTAAAAAAAAAAAAAAG [TGCATGCA_site126]” is higher in “gcPBM binding intensity (ln)” value: 6.06 for the first, 8.4 for the second.

Going from “ATAAAAAACTCAGAGCGTACATAATTTTTTCTATTT [XGTACX_site2803]” to “TAACCATACATACATACACACACACCCACATATATA [CACACA_site8951]”, the “gcPBM binding intensity (ln)” value rises from 6.36 to 7.11.

First: GGCATATATATATGCACACATACATAAATACATGTG [CACACA_site5999]
Second: AGACATTAATGAAGGTGTACATATATTTGACAGAAT [XGTACX_site655]
The “gcPBM binding intensity (ln)” value of the first is higher: 10.4 for the first, 6.82 for the second.

Compared with “TCCCTAGTATACCTTAGTACATATATTATTTTGCAC [XGTACX_site2174]”, CAGGAGAGTAAAAGAGTGCGAATTATTATTTTGGAG is lower in “gcPBM binding intensity (ln)” value: 7.43 for the first, 6.7 for the second.

Going from “CATATAAAAAGACACACACACACATATATATATATA [CACACA_site940]” to “TATTTTTATTTAGGACGTACAAAAATAAATCATATT [XGTACX_site1448]”, the “gcPBM binding intensity (ln)” value falls from 9.2 to 6.56.

Compared with “TTAAAAATATATATAACACACACATAATATATATAT [CACACA_site8811]”, “TTTTTTTTTCCCGTAAATATTGAGACAACCATAATG [CACACA_negctrl_site41]” is lower in “gcPBM binding intensity (ln)” value: 8.12 for the first, 6.33 for the second.

Going from “TCCTTATATTTGCACACACACACAAGAAAATGAAAA [CACACA_site6613]” to “TTAGAAACATTGAAAGCATGCAATATTACTTTATAC [TGCATGCA_site522]”, the “gcPBM binding intensity (ln)” value falls from 11 to 6.54.

Compared with “TATAAATATTACGGTAGTACTATACATATATATAAT [XGTACX_site7442]”, “AAGATATATATAGAAAGTACTTATATTTGTATAATT [XGTACX_site8855]” is higher in “gcPBM binding intensity (ln)” value: 6.42 for the first, 6.49 for the second.

Going from “ATATTAATATATATGTTTTATTACCATTTTATGTAT [CACACA_negctrl_site1761]” to “AATAAATAAATATATACACACATATATATATAATAT [CACACA_site921]”, the “gcPBM binding intensity (ln)” value falls from 6.73 to 6.46.

First: TGAAAAAATATAAAATATAAAATAAAAAATATAAAA [GTGCAC_negctrl_site536]
Second: TACAATCTAAAATACACACACACAAACATATATTTA [CACACA_site3702]
The “gcPBM binding intensity (ln)” value of the first is lower: 6.28 for the first, 6.88 for the second.

Going from “ATATATTTTCAAAAAAGTAAATCAAAATAAATATAT [TGCATGCA_negctrl_site319]” to “TCCAAATACAACTACACACAAACAAAAATTATATAT [CACACA_site881]”, the “gcPBM binding intensity (ln)” value rises from 6.44 to 6.71.

First: ATGGTTTAGTTATATACACACTCGAAAATAACGACA [CACACA_site7520]
Second: TATAAAAATATATTTACACACTATATATATCGAAAG [CACACA_site1700]
The “gcPBM binding intensity (ln)” value of the first is lower: 6.65 for the first, 6.72 for the second.

Compared with “TTAAAATTAATTCACCAGTATTAAAATAAAAACGAA [CACACA_negctrl_site1428]”, “AAATAAAATTTTATGTGTACGCAAAAAGTTGTAAGC [XGTACX_site8911]” is higher in “gcPBM binding intensity (ln)” value: 6.74 for the first, 7.29 for the second.

Going from “AAAATTTTTCTTAAAGCATGCACAATTAAGAAGACG [TGCATGCA_site883]” to “TTTTTTTTAAGAGATAGTACATAAATATTATAATAT [XGTACX_site4685]”, the “gcPBM binding intensity (ln)” value falls from 8.29 to 6.48.

First: AAAATAATTATGAATTGTACAGGTTTTTTTTTTTTT [XGTACX_site220]
Second: AAAAAATTTTTAAGCACACACATAGATAATATATAT [CACACA_site1555]
The “gcPBM binding intensity (ln)” value of the first is lower: 6.28 for the first, 7.04 for the second.

First: GGAAAAAAAAAAAAAAAACACACGGTACATTCAAAC [CACACA_site2715]
Second: TCTACAATTATAATTACACACTATAAAAAAGAAAGA [CACACA_site2984]
The “gcPBM binding intensity (ln)” value of the first is lower: 6.36 for the first, 6.76 for the second.

Compared with “AAAAATAGGAACCAATATCCAACGTGACTTTATAAT [CACACA_negctrl_site1011]”, “ATTTTTTTTTTTTTTTTTTTTTTTTTTTGATTTGTG [CACACA_negctrl_site1391]” is lower in “gcPBM binding intensity (ln)” value: 6.4 for the first, 5.82 for the second.

First: TTATTTTATTTTAAAAAAAACAATATAAATTCAAAG [GTGCAC_negctrl_site57]
Second: ATGTCAAATTTTTGTGCACACATATATAGTTATTAT [CACACA_site2242]
The “gcPBM binding intensity (ln)” value of the first is lower: 6.13 for the first, 11.4 for the second.

First: ATAAAAATTGATTATACACACGCGCACCCACAACAA [CACACA_site3536]
Second: TATTTATAAATTTACACACACACATGGGAACATAAA [CACACA_site5111]
The “gcPBM binding intensity (ln)” value of the first is higher: 7.35 for the first, 7.14 for the second.

First: TAAGGATAAATAAAATGAAATGAAATAAATAAATGA [XGTACX_negctrl_site539]
Second: TATATATATCAGCAATGTACACAATGCATATTATAT [XGTACX_site4836]
The “gcPBM binding intensity (ln)” value of the first is higher: 6.47 for the first, 6.38 for the second.

Compared with “AAAAAAAAAAATATCACACACACATAAATATAAACA [CACACA_site7138]”, “CATATATATATATATACACACATATATATTTTCTTT [CACACA_site1457]” is higher in “gcPBM binding intensity (ln)” value: 6.78 for the first, 7.04 for the second.

Going from “AAAGTAGGCTTATATGCACACTTTGAAATATTATAA [CACACA_site5117]” to “CAATATTATATATATACACACATAATCTGTAAAAAC [CACACA_site1068]”, the “gcPBM binding intensity (ln)” value falls from 9.77 to 6.55.

Going from “ATTATACAAAATGGTAAGGAAAAGGAAATTTTTTTT [CACACA_negctrl_site1090]” to “TTTTTATTTAATATTTTAAAAAAAAATCATTTTTAA [XGTACX_negctrl_site207]”, the “gcPBM binding intensity (ln)” value falls from 6 to 5.94.

Going from “TATATAGTAATATATACACACACTTGTCTTGTAAAA [CACACA_site990]” to “ATATTTTTTTATAAATGTACAAAAATAATATTGCAT [XGTACX_site7399]”, the “gcPBM binding intensity (ln)” value falls from 6.56 to 6.22.

Going from “CCATTTACCCTTGCCATGCACACTTTTTTATAGAAA [CACACA_site3505]” to “AAAATAATGTTTATATGTACATATATATATATATAT [XGTACX_site8815]”, the “gcPBM binding intensity (ln)” value rises from 8.98 to 9.31.

Compared with “TTATAAAAATAATATCGTACAAATGATAAAGATTAA [XGTACX_site4893]”, “ACATATATATATATATATAATATTTTATATTTATTA [CACACA_negctrl_site713]” is higher in “gcPBM binding intensity (ln)” value: 6.5 for the first, 6.66 for the second.

Compared with “TGAATTCGTCAAAAGCGTACATATAATATCTTCTTG [XGTACX_site8842]”, “TATATATACATATACACACACACACCCATATATATA [CACACA_site2246]” is higher in “gcPBM binding intensity (ln)” value: 6.46 for the first, 7.23 for the second.

First: ATAAATTTATATACTTGTACATATATATATTACATA [XGTACX_site6697]
Second: ACTATCATTTTTTTAACACACAAAAAAAATAAAATA [CACACA_site3519]
The “gcPBM binding intensity (ln)” value of the first is higher: 6.7 for the first, 6.44 for the second.

Compared with “TTTTAGCACTTATTATAAGATATCAAAAAGATGGGT [XGTACX_negctrl_site325]”, “TTTGAAATAAAAAGGTGTACACTCGATTAATAAATA [XGTACX_site6943]” is higher in “gcPBM binding intensity (ln)” value: 6.71 for the first, 6.88 for the second.

Compared with TATCTTATTTTAAAAGTGCATGGAAAGGGGTTTTTG, “TGTATAAGTGCCGTTATACACACGTTATATAAATAT [CACACA_site438]” is higher in “gcPBM binding intensity (ln)” value: 6.64 for the first, 6.67 for the second.

Going from “AAGAATACACCACGCACACACACTTGAGAAAAAATA [CACACA_site3828]” to “AAGATTAATATTTTATGTACATATGTAATATATATG [XGTACX_site4367]”, the “gcPBM binding intensity (ln)” value falls from 7.57 to 6.55.

Compared with “ATATTTTTATGATGTATCCAAGAAATGGAACTATAT [CACACA_negctrl_site1268]”, “ATTTTAGATATCCTGCGTACACAAATTGCTTTATTT [XGTACX_site7149]” is higher in “gcPBM binding intensity (ln)” value: 6.23 for the first, 6.91 for the second.

Compared with “ATATATACCTAAGACACACACATATAGATTTATATA [CACACA_site6498]”, “TTCTTTGTGGTATAGATACACACTATATTAATATGA [CACACA_site2150]” is higher in “gcPBM binding intensity (ln)” value: 6.57 for the first, 7.06 for the second.

Compared with “AAATAATATATGAATGCACACAGTAAAAATTAAAGA [CACACA_site2252]”, “AAAATTTCAATAAATACACACATATATATATATATT [CACACA_site1685]” is lower in “gcPBM binding intensity (ln)” value: 8.64 for the first, 6.54 for the second.

Going from “TCATAAATTAATAATACATGCATAATATTAAAATGT [TGCATGCA_site5]” to “AAAAATATATAAGAGAGTACATAAAATAAATTAATT [XGTACX_site1534]”, the “gcPBM binding intensity (ln)” value falls from 6.47 to 6.37.

Going from “TTTAATAATATAATGTGTACTTAAAAATTTATATAT [XGTACX_site5821]” to “AAAAAATACAAGAAATGTACTCAAGCATATATTAAT [XGTACX_site3325]”, the “gcPBM binding intensity (ln)” value rises from 6.32 to 6.54.

Going from “TTCATTATTATTAACATACACACGTGTTATATACAC [CACACA_site4112]” to “TTCATTTTTTAAGCATCACACACGAAAGAACAAAGT [CACACA_site1122]”, the “gcPBM binding intensity (ln)” value rises from 7.16 to 7.22.
